Experimental data: the supplement of paper PMC4604168 (melanoma cell lines)
The list shows a part of the results. Single values are uncertain, as repeats are few or missing.

Columns and labels:
Test in all cases: cell count relative to DMSO control; melanoma cells; higher = more viable cells
Settings in all cases: library dose: low library concentration; 72 h
MZ2-MEL = system: MZ2-MEL
MeWo = system: MeWo
RPMI7951 = system: RPMI7951
RVH-421 = system: RVH-421
SkMel28 = system: SkMel28
SkMel2 = system: SkMel2
SkMel30 = system: SkMel30
UACC62 = system: UACC62
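Note: cell number obtained by counting DAPI-stained nuclei in high-throughput microscope images with image analysis software, screen run in 1,536-well plates.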

Structure (SMILES) | cell count (MZ2-MEL) [%] | cell count (MeWo) [%] | cell count (RPMI7951) [%] | cell count (RVH-421) [%] | cell count (SkMel28) [%] | cell count (SkMel2) [%] | cell count (SkMel30) [%] | cell count (UACC62) [%]
C[C@]1(O)C[C@@H](c2nc(-c3ccc4ccc(-c5ccccc5)nc4c3)c3c(N)nccn32)C1 + OCc1c[nH]c2ccccc12 [Indole-3-carbinol] (first compound 0.4 µM, partner dose 0.8 µM) | 92.7 | 86.1 | 84.2 | 98.6 | 88.3 | 85.8 | 106 | 81.5
CCN(CC)CCNC(=O)c1c(C)[nH]c(/C=C2\C(=O)Nc3ccc(F)cc32)c1C [sunitinib] + CC(=O)c1c(C)c2cnc(Nc3ccc(N4CCNCC4)cn3)nc2n(C2CCCC2)c1=O [palbociclib] (first compound 0.4 µM, partner dose 0.04 µM) | 87.9 | 75.2 | 88.8 | 115 | 78.5 | 93 | 64.2 | 79.1
CCN(CC)CCNC(=O)c1c(C)[nH]c(/C=C2\C(=O)Nc3ccc(F)cc32)c1C [sunitinib] + CN(c1ncccc1CNc1nc(Nc2ccc3c(c2)CC(=O)N3)ncc1C(F)(F)F)S(C)(=O)=O [PF562271] (first compound 0.4 µM, partner dose 0.08 µM) | 95.3 | 85 | 81.4 | 76.5 | 88.1 | 93.7 | 67.2 | 76
Cn1cnc2c(F)c(Nc3ccc(Br)cc3Cl)c(C(=O)NOCCO)cc21 [selumetinib] + Cn1sc(=O)n(Cc2ccccc2)c1=O [TDZD-8] (first compound 0.015 µM, partner dose 0.4 µM) | 98.4 | 96.2 | 94.2 | 92.1 | 78.1 | 70.9 | 60.1 | 79.3
CCN(CC)CCNC(=O)c1c(C)[nH]c(/C=C2\C(=O)Nc3ccc(F)cc32)c1C [sunitinib] + Nc1ccn([C@@H]2O[C@H](CO)[C@@H](O)C2(F)F)c(=O)n1 [gemcitabine] (first compound 0.4 µM, partner dose 0.0004 µM) | 99.2 | 86.9 | 111 | 91.6 | 106 | 121 | 85.3 | 104
CCN(CC)CCNC(=O)c1c(C)[nH]c(/C=C2\C(=O)Nc3ccc(F)cc32)c1C [sunitinib] + Nc1nc(F)nc2c1ncn2[C@@H]1O[C@H](CO)[C@@H](O)[C@@H]1O [fludarabine] (first compound 0.4 µM, partner dose 0.2 µM) | 108 | 36.2 | 107 | 136 | 76.9 | 17.3 | 22.2 | 94.4
CCN(CC)CCNC(=O)c1c(C)[nH]c(/C=C2\C(=O)Nc3ccc(F)cc32)c1C [sunitinib] + O=C(O)c1ccc2c(c1)nc(Nc1cccc(Cl)c1)c1ccncc12 [CX4945] (first compound 0.4 µM, partner dose 0.4 µM) | 101 | 89.7 | 110 | 112 | 111 | 104 | 84.7 | 83.4
COc1cc([C@@H]2c3cc4c(cc3[C@@H](O[C@@H]3O[C@@H]5CO[C@@H](C)O[C@H]5[C@H](O)[C@H]3O)[C@H]3COC(=O)[C@H]23)OCO4)cc(OC)c1O [etoposide] + CCCCCCCCCCCCCCCCCCOP(=O)([O-])OC1CC[N+](C)(C)CC1 [Perifosine] (first compound 0.02 µM, partner dose 0.4 µM) | 94.2 | 105 | 100 | 108 | 88.9 | 94.7 | 82 | 95.9
Cn1cnc2c(F)c(Nc3ccc(Br)cc3Cl)c(C(=O)NOCCO)cc21 [selumetinib] + CCCS(=O)(=O)Nc1ccc(F)c(C(=O)c2c[nH]c3ncc(Cl)cc23)c1F [PLX4720] (first compound 0.015 µM, partner dose 0.08 µM) | 104 | 92.7 | 110 | 87.6 | 72.5 | 86.9 | 82.6 | 67.8
Cn1cnc2c(F)c(Nc3ccc(Br)cc3Cl)c(C(=O)NOCCO)cc21 [selumetinib] + CN(c1ncccc1CNc1nc(Nc2ccc3c(c2)CC(=O)N3)ncc1C(F)(F)F)S(C)(=O)=O [PF562271] (first compound 0.015 µM, partner dose 0.08 µM) | 85.8 | 90.7 | 84.8 | 75.3 | 92.6 | 60.5 | 57.3 | 68.8
COc1cc([C@@H]2c3cc4c(cc3[C@@H](O[C@@H]3O[C@@H]5CO[C@@H](C)O[C@H]5[C@H](O)[C@H]3O)[C@H]3COC(=O)[C@H]23)OCO4)cc(OC)c1O [etoposide] + Cc1nc(Nc2ncc(C(=O)Nc3c(C)cccc3Cl)s2)cc(N2CCN(CCO)CC2)n1 [dasatanib] (first compound 0.02 µM, partner dose 0.004 µM) | 68.5 | 98 | 54.6 | 66.9 | 88.8 | 92.7 | 76.8 | 69.5
CCN(CC)CCNC(=O)c1c(C)[nH]c(/C=C2\C(=O)Nc3ccc(F)cc32)c1C [sunitinib] + C#Cc1cccc(Nc2ncnc3cc(OCCOC)c(OCCOC)cc23)c1 [erlotinib] (first compound 0.4 µM, partner dose 0.8 µM) | 101 | 76.9 | 78.3 | 114 | 90.5 | 114 | 64 | 78.8
COc1cc([C@@H]2c3cc4c(cc3[C@@H](O[C@@H]3O[C@@H]5CO[C@@H](C)O[C@H]5[C@H](O)[C@H]3O)[C@H]3COC(=O)[C@H]23)OCO4)cc(OC)c1O [etoposide] + Cn1sc(=O)n(Cc2ccccc2)c1=O [TDZD-8] (first compound 0.02 µM, partner dose 0.4 µM) | 90.1 | 93.7 | 97.7 | 95.5 | 88.9 | 87.9 | 89.8 | 85.6
C[C@]1(O)C[C@@H](c2nc(-c3ccc4ccc(-c5ccccc5)nc4c3)c3c(N)nccn32)C1 + C=CCNC1=C2C[C@@H](C)C[C@H](OC)[C@H](O)[C@@H](C)/C=C(\C)[C@H](OC(N)=O)[C@@H](OC)/C=C\C=C(/C)C(=O)NC(=CC1=O)C2=O [Tanespimycin] (first compound 0.4 µM, partner dose 0.002 µM) | 94.4 | 77.4 | 88.4 | 95.5 | 84.8 | 79.4 | 99.3 | 90.9
COc1cc([C@@H]2c3cc4c(cc3[C@@H](O[C@@H]3O[C@@H]5CO[C@@H](C)O[C@H]5[C@H](O)[C@H]3O)[C@H]3COC(=O)[C@H]23)OCO4)cc(OC)c1O [etoposide] + C#Cc1cccc(Nc2ncnc3cc(OCCOC)c(OCCOC)cc23)c1 [erlotinib] (first compound 0.02 µM, partner dose 0.8 µM) | 81.8 | 88.1 | 89.6 | 88.1 | 79.2 | 1.34 | 73.5 | 68.2
COc1cc([C@@H]2c3cc4c(cc3[C@@H](O[C@@H]3O[C@@H]5CO[C@@H](C)O[C@H]5[C@H](O)[C@H]3O)[C@H]3COC(=O)[C@H]23)OCO4)cc(OC)c1O [etoposide] + C=CCNC1=C2C[C@@H](C)C[C@H](OC)[C@H](O)[C@@H](C)/C=C(\C)[C@H](OC(N)=O)[C@@H](OC)/C=C\C=C(/C)C(=O)NC(=CC1=O)C2=O [Tanespimycin] (first compound 0.02 µM, partner dose 0.002 µM) | 92.9 | 88.6 | 93 | 101 | 101 | 92.2 | 87.6 | 93.7
C[C@]1(O)C[C@@H](c2nc(-c3ccc4ccc(-c5ccccc5)nc4c3)c3c(N)nccn32)C1 + CS(=O)(=O)CCNCc1ccc(-c2ccc3ncnc(Nc4ccc(OCc5cccc(F)c5)c(Cl)c4)c3c2)o1 [lapatinib] (first compound 0.4 µM, partner dose 0.8 µM) | 99.1 | 91.1 | 93.5 | 119 | 97.5 | 83.9 | 74.6 | 84.8
Cn1cnc2c(F)c(Nc3ccc(Br)cc3Cl)c(C(=O)NOCCO)cc21 [selumetinib] + Nc1ccn([C@@H]2O[C@H](CO)[C@@H](O)C2(F)F)c(=O)n1 [gemcitabine] (first compound 0.015 µM, partner dose 0.0004 µM) | 89.3 | 109 | 87 | 68.9 | 101 | 80.3 | 58.3 | 94.9
C[C@]1(O)C[C@@H](c2nc(-c3ccc4ccc(-c5ccccc5)nc4c3)c3c(N)nccn32)C1 + CNC(=O)c1cc(Oc2ccc(NC(=O)Nc3ccc(Cl)c(C(F)(F)F)c3)cc2)ccn1 [sorafenib] (first compound 0.4 µM, partner dose 0.4 µM) | 82.8 | 88.8 | 86.3 | 95.6 | 106 | 85.9 | 97.8 | 79.8
C[C@]1(O)C[C@@H](c2nc(-c3ccc4ccc(-c5ccccc5)nc4c3)c3c(N)nccn32)C1 + Nc1ccn([C@@H]2O[C@H](CO)[C@@H](O)C2(F)F)c(=O)n1 [gemcitabine] (first compound 0.4 µM, partner dose 0.0004 µM) | 87 | 89 | 109 | 87.7 | 96.8 | 87.5 | 86.8 | 89.5
COc1cc([C@@H]2c3cc4c(cc3[C@@H](O[C@@H]3O[C@@H]5CO[C@@H](C)O[C@H]5[C@H](O)[C@H]3O)[C@H]3COC(=O)[C@H]23)OCO4)cc(OC)c1O [etoposide] + CCN(CC)CCNC(=O)c1c(C)[nH]c(/C=C2\C(=O)Nc3ccc(F)cc32)c1C [sunitinib] (first compound 0.02 µM, partner dose 0.4 µM) | 94.8 | 93 | 90.3 | 114 | 97.3 | 96.7 | 104 | 92.2
